Results taken from PubChem BioAssay (NCI).
Values joined by “and” are separate entries in the source; they are usually repeats but may differ in a detail not shown here. Equal entries are not always repeated.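 Values below derive from 48-hour exposures of cells grown in 96-well plates, with endpoints linearly interpolated between the two concentrations bracketing the appropriate inhibition level. GI50 is the concentration that inhibits growth by half. TGI: total growth inhibition.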 Peptide text beside a SMILES is read from it.

System: NCI-H322M lung
Test: NCI tumour cell line growth inhibition, 48 h

Compound | TGI | GI50
Cc1ccc([N+](=O)[O-])cc1NC(=O)C(=O)Cc1nc2ccc(C(=O)c3ccccc3)cc2[nH]c1=O | > 100 µM | –
NC1=Nc2ccccc2Sc2nccn21 | > 100 µM | –
O=c1c2ccccc2ncn1COCc1ccccc1 | > 100 µM | –
O=C(CSc1nc2ccc(I)cc2c(=O)n1Cc1ccccc1)NNC(=S)Nc1ccccc1 | > 100 µM | –
O=C1NN(C(=O)c2ccccc2)C(c2ccc(Cl)c(Cl)c2)=C/C1=C\c1ccccc1[N+](=O)[O-] | > 6.75 µM | 2.23 µM
CC(C)(C)OC(=O)NCC(c1c[nH]c2cc(Br)ccc12)c1c[nH]c2cc(Br)ccc12 | 34.1 µM | –
CCCCC1Nc2ccccc2-c2ccnc(Cl)c21 (centres undefined) | > 100 µM | –
NS(=O)(=O)c1ccc(N=Nc2ccc(O)cc2)cc1 | > 100 µM | –
COc1nc2c(c(=O)n1C)CN(c1ccccc1)C(=O)CN2C | > 100 µM | 79.7 µM
COC(=O)CC(C(C(=O)OCc1ccccc1)C(C)O)N1C(=O)OCC1c1ccccc1 (centres undefined) | > 100 µM | –
OCC#Cc1ccccc1C#Cc1ccc(C#Cc2ccccc2C#CCO)cc1 | > 100 µM | > 100 µM
COc1cc(/C=C2\N=C(c3ccccc3)N(c3nc4ccccc4s3)C2=O)cc(OC)c1OC | > 100 µM | –
Cc1cc2c3c(nc2c2cc[nH]c(C)c12)CCCC3 | 12.7 µM | –
C=CCN=C1NC(=O)C(CC(=O)Nc2cccc(Cl)c2)S1 (centres undefined) | > 100 µM | –
Cc1nc(-c2cccnc2)sc1C(=O)CC(=O)C(=O)Nc1cccc(NC(=O)C(=O)CC(=O)c2sc(-c3cccnc3)nc2C)n1 | > 100 µM | –
CCc1cc2c(cc1C(=O)CCC(=O)O)CC1(C2)Cc2cc(CC)c(C(=O)CCC(=O)O)cc2C1 | > 100 µM | –
CC(=O)NC(CS)C(=O)NC(CO)C(=O)NC(CO)C(=O)NC(Cc1c[nH]c2ccccc12)C(=O)N1CCCC1C(=O)NC(CO)C(=O)NC(Cc1c[nH]c2ccccc12)C(=O)NC(Cc1c[nH]cn1)C(=O)NC(CO)C(=O)NC(Cc1c[nH]c2ccccc12)C(=O)NCC(=O)NCC(=O)NC(C)C(=O)NC(CCC(N)=O)C(=O)NC(CCCCN)C(=O)NC(C)C(=O)NC(CCCNC(=N)N)C(=O)NC(CCCCN)C(N)=O (centres undefined) (Ac-CSSWPSWHSWGGAQKARK-NH2; configuration not given here) | > 50 µM | –
CN1/C(=C\N=O)C(C)(C)N(O)C1(C)C | > 100 µM | –
COc1c(C)c(C/C=C(\C)CC/C=C(\C)CC/C=C(\C)CC/C=C(\C)CCC=C(C)C)c(OC)c(OC)c1OC | > 100 µM | –
CCOC(=O)c1ccc(Nc2nc3ccccc3n3cccc23)cc1 | > 100 µM | –
C[C@]12CC[C@@H]3c4ccc(O)cc4CC[C@H]3[C@@H]1CC(Cc1ccccc1)(Cc1ccccc1)C2=O | 38.5 µM | 18.8 µM
Cc1ccccc1SC(/C=C/NNC1=NC(c2ccccc2)C(c2ccccc2)=NN1)c1ccccc1 (centres undefined) | 56.5 µM | –
CSc1nc2nccnc2c(=O)[nH]1 | > 100 µM | –
OC(c1cc2ccccc2[nH]1)C(O)(c1cc2ccccc2[nH]1)c1cc2ccccc2[nH]1 (centres undefined) | 87.9 µM | –
CCN(CC)CCOCCOCC1(c2ccc(Cl)c(Cl)c2)CCCCC1 | 26.2 µM | –
CCOC(=O)C(=CNc1ccc(S(N)(=O)=O)cc1)C(=O)OCC | > 100 µM | –
CC[C@H](C)[C@H](NC(=O)c1ncccn1)C(=O)N(C)[C@H](C[C@@H](OC(C)=O)c1nc(C(=O)N[C@@H](Cc2ccccc2)C[C@H](C)C(=O)OC)cs1)C(C)C | > 25 µM | 1.91 µM

Compound | TGI | GI50
O=C(/C=C/c1ccc(-c2ccccc2)cc1)c1ccccc1 | > 100 µM | –
COc1ccccc1N1C(=O)CSC1c1cccc(Oc2ccccc2)c1 (centres undefined) | 48.1 µM | –
C/C=C(\C)C(=O)OC1C2C(C)=CC(=O)C(O)C2(C)C2C3(O)OCC24C1OC(=O)C(OC(C)=O)C4C(C)C3O (centres undefined) | 1.18 µM | –
CC1(C)N=C(N)N=C(N)N1c1cccc(CCCCc2ccc(Cl)c(S(=O)(=O)F)c2)c1 | 22.5 µM | 6.45 µM
COc1ccc2nc(N/N=C/c3ccc(C)s3)cc(C)c2c1 | 30.4 µM | –
COc1ccc(CC2Cc3ccccc3CC(=O)N2)cc1OC (centres undefined) | > 100 µM | –
CCCCSC1CCSc2c1ccc1ccccc21 (centres undefined) | > 100 µM | –
Oc1ccc(Br)cc1C=NC1CCCCC1 | > 100 µM | –
Cc1cc2[nH]c(=O)c3c4ncccc4cn3c2cc1C | > 100 µM | 4.1 µM
O=c1cccccc1O | > 100 µM | –
COc1cccc(C2SC(C)C(=O)N2NC(=O)C(O)c2ccccc2)c1 (centres undefined) | > 100 µM | > 100 µM
NC(=O)c1ccc(I)c([N+](=O)[O-])c1 | 99.7 µM | 35.2 µM
O=C(N/C(=C\c1cccc([N+](=O)[O-])c1)c1nc2c3c(ccc2[nH]1)C(=O)c1ccccc1C3=O)c1ccccc1 | > 100 µM | –
O=C1NCN(c2ccccc2)C12CCN(CCCN1CCN(CCOC(c3ccccc3)c3ccccc3)CC1)CC2 | 7.82 µM | –
CC(=O)N(N=O)c1ccc(N(N=O)C(C)=O)cc1 | > 100 µM | –
COC1CC(O[C@H]2CC[C@@]3(C)C(=CCC4(O)C3CCC35C(=O)OC6(C)O[C@@]43CCC65)C2)OC(C)C1O (some centres undefined) | > 100 µM | –
N#CC1(C#N)C(=O)c2ccncc2C1=O | > 100 µM | –
C/C(=N\N)C(CN1CCOCC1)C(c1ccccc1)c1c(O)c2ccccc2oc1=O (centres undefined) | > 100 µM | –
CCOC(=O)C1=NN(c2ccc(C)cc2)C2(c3ccccc3)C=C(c3ccccc3)N(C)CCN12 (centres undefined) | > 100 µM | –
COc1ccc(N[C@H](CS(=O)c2ccc(C)cc2)C(F)(F)F)cc1 (some centres undefined) | > 100 µM | –
CC1=C(O)C(=O)C2C(=O)C1C(C)C2c1ccccc1 (centres undefined) | > 100 µM | –
COc1ccc2[nH]c3c(c2c1)CCc1c(OC)cccc1-3 | > 100 µM | –
COc1cc(OCCCN2CCCC2)ccc1Nc1ncc(Cl)c(Nc2ccccc2P(C)(C)=O)n1 | 6.84 µM | 1.54 µM
COC(Cc1cc(C(O)(c2ccc(C(C)(C)C)cc2)c2cc(CC(OC)(c3cc(C(OC)(c4ccc(C(C)(C)C)cc4)c4ccc(C(C)(C)C)cc4)c(C)cc3C)c3cc(C(OC)(c4ccc(C(C)(C)C)cc4)c4ccc(C(C)(C)C)cc4)c(C)cc3C)c(C)cc2C)c(C)cc1C)(c1cc(C(OC)(c2ccc(C(C)(C)C)cc2)c2ccc(C(C)(C)C)cc2)c(C)cc1C)c1cc(C(OC)(c2ccc(C(C)(C)C)cc2)c2ccc(C(C)(C)C)cc2)c(C)cc1C | > 75 µM | –
COc1cc(/C=C/C(=O)c2ccccc2O)ccc1OCCCOc1cc2c(cc1OC)C(=O)N1CCC[C@H]1C=N2 | 1.4 µM | 0.283 µM
Cc1ccc(F)c2[nH]c(-c3ccccc3)cc(=O)c12 | > 100 µM | –
OCC1CC2C=CCC(C2)C1 (centres undefined) | > 100 µM | –

Compound | TGI | GI50
N#C[S-].[Ce+3].c1ccc(-c2ccccn2)nc1.c1ccc(-c2ccccn2)nc1.c1ccc(-c2ccccn2)nc1 | > 100 µM | 13.6 µM
Cc1cc(C)n(CN(CCCCO)Cn2nc(C)cc2C)n1 | > 100 µM | –
C/C(COc1ccc2oc(-c3ccccc3)cc(=O)c2c1)=N\O | 90.9 µM | 21.4 µM
Oc1cccc2ccc(SSc3ccc4cccc(O)c4n3)nc12 | > 100 µM | –
Oc1cccc2cccnc12 | > 100 µM | 6.43 µM and 30 µM and 13.2 µM
O=C(NC1CCCCC1)NC12CC3CC(CC(F)(C3)C1)C2 | > 100 µM | –
CC(C)(C)n1[nH]c(=O)n(C(C)(C)C)c1=O | > 100 µM | –
O=C(N/N=C\c1ccc(N(CCCl)CCCl)cc1)c1cccnc1 | > 100 µM | > 100 µM
Cn1c2ccccc2c2c3c(c4c5ccccc5n(C)c4c21)C(=O)N(Cc1ccccc1)C3=O | > 100 µM | –
Cc1cc(OP2(=O)NCc3ccncc3O2)ccc1Cl (centres undefined) | > 100 µM | –
CCOC(=O)c1ccc(NCc2ccc3nc(OC)c(OC)nc3c2)cc1 | > 100 µM | –
Cn1cc(-c2ncnc3ccc(-c4cnc(Cl)c(NS(C)(=O)=O)c4)cc23)c2ccccc21 | 29.5 µM | 0.741 µM
CON1C(=O)C2(CCCCC2)C(=O)C12C=CC(C)CC2 (centres undefined) | > 100 µM | –
CN1CCN(c2ccncc2S(=O)(=O)N2CCN(C)CC2)CC1 | > 100 µM | –
Cc1cn(CCCCOC(=O)NC(CCCN=C(N)N)C(=O)O)c(=O)[nH]c1=O (centres undefined) | > 100 µM | –
COc1ccc(/C=C/c2cc(OC)c(OC)c(OC)c2)cc1OC | > 100 µM | –
Cc1ccc(C(=O)C2C=C(c3ccc(C)cc3)SC3C=CCC32)cc1 (centres undefined) | 76.1 µM | –
CCCCNC(=O)Oc1ccc(/C(=C(\C)c2ccc(OC)cc2)c2ccc(OCCN3CCCCC3)cc2)cc1 | 16 µM | 3.77 µM
O=[N+]([O-])c1cc(I)cc(/C=N/NS(=O)(=O)c2ccc(F)cc2)c1O | 65.6 µM | –
O=C1/C(=C/c2ccc([N+](=O)[O-])cc2)CCCc2ccccc21 | > 100 µM | –
CCOC(=O)NC(=O)c1cn(C2CCCCC2)c(=O)n(C)c1=O | > 100 µM | –
CC(=O)OC(OC(C)=O)c1c2ccccc2cc2ccccc12 | 81.7 µM | –
N#CC12CC(C=O)=C(N)C1(C#N)CC(C=O)=C2N (centres undefined) | > 100 µM | –
Oc1c(CN2CCCCC2)ccc2cccnc12 | 13.5 µM | 2.49 µM
Cn1c(=O)nc2n(-c3ccc(F)c(F)c3)c3ccccc3nc-2c1=O | 68.5 µM | –
C=C[C@@H]1CCC/C=C/[C@@H]2C[C@H](O)C[C@H]2[C@H](O)/C=C/C(=O)O1 | > 100 µM | 0.801 µM
